# Test results as given in PubChem BioAssay AID686978 (National Center for Advancing Translational Sciences (NCATS), 2013).
# The campaign covered roughly 420,000 compounds. About 64,000 (15%) were called active. This list was built around the results that the source calls inconclusive (neither active nor inactive); the mix of calls is not that of the screen. Calls follow the shape of the dose curve; as a rule, active = well fitted inhibition curve with a large enough effect; inconclusive = small, poorly fitted or top-dose-only effect; inactive = flat fitted curve, though single readings scatter. Potencies of inconclusive entries are left out as doubtful fits.
# Experiment: qHTS for Inhibitors of human tyrosyl-DNA phosphodiesterase 1 (TDP1): qHTS in cells in absence of CPT; also: nearly all actives have a fitted effect of over 55% in size
# Settings: DT40 Tdp1-/- hTDP1 cells, no CPT, ATP luminescence, 48 h; activity change, negative = growth inhibition: at 46.2 µM (top of the series) unless noted
# In short: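 A cellular qHTS used chicken DT40 cells lacking endogenous Tdp1 but carrying stably transfected human TDP1. Compounds were applied without camptothecin, and cell growth kinetics were judged by ATP-dependent luminescence after ≥48 hr.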
# % is scaled to controls: 0 for no effect and ±100 for the full control effect; potency is read from the fitted curve at half-maximal effect; tags tell the direction and shape of the fitted curve.
SMILES,Potency,"activity change, negative = growth inhibition"
CCOc1ccc(N=Nc2ccc(O)c3ncccc23)cc1,"inconclusive [inhibitor, single point]",
CCOC(=O)c1c(C)[nH]c(C)c1S(=O)(=O)N1CCCC(C(=O)N2CCN(c3cc(C)ccc3C)CC2)C1 (centres undefined),"inconclusive [inhibitor, single point]",
O=C(C1CCCO1)N1CCN(S(=O)(=O)c2cc(C(F)(F)F)ccc2Cl)CC1 (centres undefined),inactive,
CCN(CC)c1ccc2cc(C(=O)NNC(=O)c3ccc(S(=O)(=O)N4CCCCC4)cc3)c(=O)oc2c1,"inconclusive [inhibitor, partial curve]",
O=C(c1ccco1)N1CCC2(CC1)CCN(c1ccccn1)CC2,"inconclusive [inhibitor, single point]",
Cc1ccc2nc(C3CCCN3Cc3nc(CCC(C)C)no3)[nH]c2c1 (centres undefined),"inconclusive [inhibitor, single point]",
COc1cc2c(cc1NC(=O)C(c1ccccc1)c1ccccc1)CCCC2,active: 11.6 µM,
CCCCC(=O)Nc1cnc(NC(=O)c2ccco2)cc1C,"inconclusive [inhibitor, single point]",
COc1ccccc1CNC(=O)[C@@H]1CCCN1S(=O)(=O)c1ccc(Cl)cc1,"inconclusive [inhibitor, single point]",
CCOC(=O)c1nc(-c2ccccc2)oc1N(C)C,"inconclusive [inhibitor, single point]",
Cc1cc(CNC(=S)Nc2ccc(Br)cc2Cl)nn1C,"inconclusive [inhibitor, partial curve]",
CC1(C2CC(C(F)(F)F)n3nc(C(=O)O)cc3N2)CC1 (centres undefined),inactive,
O=C(O)c1ccc(NCCC2=CCCCC2)c([N+](=O)[O-])c1,inactive,
CC(=O)c1ccc(N2CCN(C(=O)c3ccc4nc[nH]c4c3)CC2)cc1,"inconclusive [inhibitor, single point]",
Cn1c2ccccc2c2ncn(CCC3=CCCCC3)c(=O)c21,"inconclusive [inhibitor, partial curve]",
COCCCNC(=O)c1cc2c(=O)n(C)c3ccccc3c2n1C,"inconclusive [inhibitor, single point]",
CCOC(=O)c1ccc(NC(=S)P(=O)(c2ccccc2)c2ccccc2)cc1,"inconclusive [inhibitor, single point]",
CCCCCn1c(C)c2c(OCC)cccc(=O)c2c1C,"inconclusive [inhibitor, single point]",
CCC(CC)C(=O)Nc1ccccc1C(=O)OCc1cc(=O)n2nc(C3CCCCC3)sc2n1,"inconclusive [inhibitor, partial curve, poor fit]",
COc1ccc(Cl)cc1N(C)C(=O)Cn1cnc2sc(C)c(S(=O)(=O)N3CCN(c4ncccn4)CC3)c2c1=O,"inconclusive [inhibitor, single point]",
COc1ccc(C(=O)Nc2ccc(S(=O)(=O)NC(C)C)cc2)cc1,"inconclusive [inhibitor, partial curve]",
Cc1ccc(NC(=O)c2sc3nc(N)c(C#N)cc3c2N)cc1,"inconclusive [inhibitor, single point]",

SMILES,Potency,"activity change, negative = growth inhibition"
Brc1ccc(-c2cn3ccccc3n2)s1,active: 23.1 µM,
C/C(=N\NC(=O)c1cccc(Br)c1)c1cccc(NC(=O)c2ccc(C)o2)c1,"inconclusive [inhibitor, single point]",
CC1=CC(=O)C=C(C)C1=NOC(=O)/C=C\c1ccccc1,inactive,
CC1=C(C)CC(C(=O)N2CCN(Cc3ccc4c(c3)OCO4)CC2)C(C(=O)O)C1 (centres undefined),,inconclusive: -31% [inhibitor]
O=C(CCNC(=O)c1ccccc1Cl)Nc1cc(C(F)(F)F)ccc1Cl,"inconclusive [inhibitor, single point]",
Cc1cc2c(NCC(C)O)ncnc2s1 (centres undefined),inactive,
Cc1ccc(OCCCc2c(C)n[nH]c2C)cc1,active: 16.4 µM,
CCC(C(=O)NCCCN1CC(C)CC(C)C1)n1nc(C)c2sc3ccccc3c2c1=O (centres undefined),"inconclusive [inhibitor, single point]",
C=CCOc1cccc(C2C(C(=O)c3cc4ccccc4o3)=C(O)C(=O)N2c2cc(C)on2)c1 (centres undefined),"inconclusive [inhibitor, single point]",
O=C(COc1ccccc1)N(Cc1ccco1)c1ccc(O)cc1,"inconclusive [inhibitor, single point]",
O=C(c1ccco1)N1CCC[C@@]2(CCN(c3cccc(-c4ccccc4)c3)C2)C1,"inconclusive [inhibitor, single point]",
O=[N+]([O-])c1ccc(S(=O)(=O)N2CCN(c3nc(-c4ccccc4)nc4ccccc34)CC2)cc1,inactive,
CCCCC(=O)Nc1nc(-c2ccc(S(=O)(=O)N3CCOCC3)cc2)cs1,active: 18.4 µM,
COC(=O)c1sc(-c2ccc(C(C)(C)C)cc2)cc1NC(=O)CCC(=O)O,"inconclusive [inhibitor, single point]",
O=C(O)c1ccccc1C(=O)NC1CCCc2ccccc21 (centres undefined),inactive,
CCn1c(SCC(=O)N2CCC(C)CC2)nc2c([nH]c3ccccc32)c1=O,"inconclusive [inhibitor, single point]",
CCOC(=O)C(C)(C)Sc1ncnc2nc[nH]c12,inactive,
CN(CCc1ccccc1)C(=O)CC1C(=O)NCCN1Cc1ccccn1 (centres undefined),inactive,
COc1ccc(Cl)cc1NC(=O)[C@H]1O[C@@H]2OC(C)(C)O[C@@H]2[C@H]2OC(C)(C)O[C@H]21,"inconclusive [inhibitor, single point]",
CC(=O)c1ccc(S(=O)(=O)N2CCN(c3nc(-c4cccnc4)nc4ccccc34)CC2)cc1,"inconclusive [inhibitor, single point]",
CN(CC(=O)Nc1cccc(F)c1)C(=O)C1CCN(C(=O)c2ccc(Cl)cc2)CC1,inactive,
O=S(=O)(Nc1ccc2oc(-c3ccccc3)nc2c1)c1ccccc1,inactive,
